Results: publication PMC4336329 (PLoS ONE, 2015)
Out of some 310,000 compounds screened, about 14,000 (4.5%) showed an effect of 50% or more. The effect is printed as a negative number. Some of the results follow.

biological target: human ether-à-go-go-related gene (hERG) potassium channel (human, UniProt Q12809); test: primary screen, population patch clamp on CHO cells stably expressing hERG
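Also: peak tail current of the secondary pulse compared with the same well before compound.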

human ether-à-go-go-related gene (hERG) potassium channel, sequence (Q12809 whole entry, looked up): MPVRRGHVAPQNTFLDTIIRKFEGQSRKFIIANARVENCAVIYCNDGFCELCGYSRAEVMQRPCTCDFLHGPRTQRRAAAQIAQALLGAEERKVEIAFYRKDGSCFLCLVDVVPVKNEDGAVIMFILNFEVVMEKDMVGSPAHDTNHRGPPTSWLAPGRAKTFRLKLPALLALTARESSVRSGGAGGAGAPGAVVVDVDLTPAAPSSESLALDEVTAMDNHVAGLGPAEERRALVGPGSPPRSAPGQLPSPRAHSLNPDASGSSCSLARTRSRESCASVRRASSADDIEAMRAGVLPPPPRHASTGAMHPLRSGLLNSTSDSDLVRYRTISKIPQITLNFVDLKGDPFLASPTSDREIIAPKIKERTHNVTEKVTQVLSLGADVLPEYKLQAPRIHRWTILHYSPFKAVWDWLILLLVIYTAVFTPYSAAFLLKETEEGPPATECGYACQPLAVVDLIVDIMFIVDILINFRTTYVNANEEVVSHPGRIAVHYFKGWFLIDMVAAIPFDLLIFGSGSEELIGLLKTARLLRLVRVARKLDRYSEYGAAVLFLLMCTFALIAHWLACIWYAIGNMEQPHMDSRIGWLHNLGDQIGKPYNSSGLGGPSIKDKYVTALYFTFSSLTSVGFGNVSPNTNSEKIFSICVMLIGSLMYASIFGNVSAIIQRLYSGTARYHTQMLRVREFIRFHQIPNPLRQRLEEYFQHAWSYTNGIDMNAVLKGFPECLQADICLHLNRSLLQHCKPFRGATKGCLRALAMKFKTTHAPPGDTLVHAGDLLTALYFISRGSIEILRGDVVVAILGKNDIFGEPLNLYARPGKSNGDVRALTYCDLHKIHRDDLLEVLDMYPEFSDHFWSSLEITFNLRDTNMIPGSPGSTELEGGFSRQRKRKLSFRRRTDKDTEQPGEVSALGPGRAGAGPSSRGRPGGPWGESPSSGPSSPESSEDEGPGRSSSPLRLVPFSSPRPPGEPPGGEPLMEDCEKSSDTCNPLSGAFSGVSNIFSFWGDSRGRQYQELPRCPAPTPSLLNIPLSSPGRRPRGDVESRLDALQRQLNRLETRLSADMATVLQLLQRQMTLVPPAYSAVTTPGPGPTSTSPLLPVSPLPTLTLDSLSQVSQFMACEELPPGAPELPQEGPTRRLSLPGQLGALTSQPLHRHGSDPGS

Structure (SMILES)	hERG current change (%, negative = inhibition) at 10uM
O=C(NCc1ccco1)c1ccc(Br)s1	-7.38%
COc1ccc2cnn(-c3ccc(C)cc3)c(=O)c2c1OC	-0.33%
COc1cc([N+](=O)[O-])ccc1NC(=O)CCCOc1ccccc1	-23.8%
COc1ccccc1S(=O)(=O)CC(O)COc1ccc(C#N)cc1 (centres unmarked)	8.16%
CC1CCc2nc(NC(=O)c3ccco3)sc2C1 (centres unmarked)	-15.8%
CC1C(=O)N2CCCc3cc(NC(=O)C(=O)NCCCc4ccccc4)cc1c32 (centres unmarked)	-28.4%
Cc1nnc(SCC(=O)N(CC(C)C)C2CCS(=O)(=O)C2)n1N (centres unmarked)	11.7%
O=C(COc1ccc(Cl)cc1)N1CCCCC1	-5.82%
CCCCN(CCCC)CCCOC(=O)c1ccc(N)cc1	-40.9%
CCOC(=O)Cn1cc(/C=N/NC(=O)c2cc3ccccc3o2)c2ccccc21	-15%
CC(C)C(C)(C#N)NC(=O)CSc1nncn1-c1ccccc1 (centres unmarked)	15.4%
CCC1(c2ccccc2)C(=O)N(COC)C(=O)N(COC)C1=O	3.91%
CC(OC(=O)CCN=C1NS(=O)(=O)c2ccccc21)C(=O)N(C)C1CCCCC1 (centres unmarked)	11.7%
COc1cc(C(=O)N2CCCc3ccccc32)cc(OC)c1OC	7.87%
Cc1ccc(C(=O)N/C(=C/c2ccco2)C(=O)NCCc2c[nH]c3ccccc23)cc1	-46%
Cc1ccc(S(=O)(=O)N2CCC(=O)N(C(COCc3cccc(C(F)(F)F)c3)C(C)C)CC2)cc1 (centres unmarked)	-21.8%
COc1ccccc1NCc1ccc([N+](=O)[O-])s1	-47.7%
CCOC(=O)c1cccc(C(=O)Nc2nc3ccc(OC)cc3s2)n1	23.5%
CCC(C)(C)n1nnnc1C(c1ccccc1F)N1CCN(C(=O)c2ccco2)CC1 (centres unmarked)	-13.9%
O=C(CSc1nc(-c2ccccc2)c(-c2ccccc2)[nH]1)NCC1CCCO1 (centres unmarked)	-0.72%
Cc1c(Br)c(C(F)(F)F)nn1CC(=O)NCc1ccccc1	31.8%
Fc1cccc(NC(=S)NCc2ccccc2Cl)c1	8.01%
Cc1nnc(NC(=O)c2cccc(S(=O)(=O)N3CCCC3)c2)s1	12.3%

Structure (SMILES)	hERG current change (%, negative = inhibition) at 10uM
N#Cc1ccsc1NC(=O)CN1CCN(c2ccc(O)cc2)CC1	-19.5%
CCOc1ccccc1N(CC(=O)N1CCCCCC1)S(=O)(=O)c1ccc(C)cc1	-31.9%
O=C(Nc1cccc(O)c1)C1CC(c2ccc(Cl)cc2)=NO1 (centres unmarked)	-12.9%
O=C(CSc1ccc(-c2ccncc2)nn1)N1CCCC1	-1.43%
O=C(NCCN1CCOCC1)/C(=C/c1ccc(F)cc1)NC(=O)c1ccccc1	-67.8%
NC(=O)NC(=O)CSc1nnc(-c2ccc(Cl)cc2)n1CC1CCCO1 (centres unmarked)	29.3%
O=C(NC(=S)N1CCCCC1)c1cccnc1	20.3%
COc1cccc(-c2cc(C(=O)NCC3CCCO3)c3cc(C)cc(C)c3n2)c1 (centres unmarked)	18.8%
Cc1cc(CN2CCCCC2C(=O)Nc2ccc(Oc3cccnc3)cc2)oc1C (centres unmarked)	-31.1%
CCN(CC)CCN(C(=O)c1ccc([N+](=O)[O-])cc1)c1nc2c(OC)cccc2s1.Cl	-73.2%
COc1cccc(C(C(=O)NC2CCCC2)N(C(=O)c2ccco2)C2CC2)c1OC (centres unmarked)	1.89%
Cc1occc1C(=O)NNC(=O)Nc1ccc(Cl)c(Cl)c1	-4.8%
CCN(CC(=O)Nc1c(F)cccc1F)C(=O)COc1cccc2c1OC(C)(C)C2	-7.88%
O=C(O)CCCC(=O)Nc1nc(-c2ccc(F)cc2)cs1	0.721%
O=C1c2ccc(Cl)cc2S(=O)(=O)c2cccc(C(=O)N3CCN(c4ncc(Br)cn4)CC3)c21	-45.2%
O=C(NC(=S)Nc1ccc(N2CCCCC2)c(Cl)c1)c1cccs1	-16.9%
Cc1cc2nc(-c3ccc(SCC(=O)Nc4ccc(S(=O)(=O)N5CCCC5)cc4)nc3)[nH]c2cc1C	8.52%
CCCC(=O)NC(=S)Nc1ccc(C(C)=O)cc1	17.5%
Cl.Fc1cccc(Cl)c1CNC(c1ccccc1)c1ccccc1	14.1%
Cc1sc2ncnc(N/N=C/c3ccccc3O)c2c1C	-1.58%
N/C(=N\c1nc2c(c(=O)[nH]1)CCCC2)Nc1ccccc1	-9.47%
CCCOc1cccc(C(=O)Nc2cccc(NC(=O)c3ccco3)c2)c1	-21.8%
COc1cc(CCC(=O)OCC(=O)Nc2ccc(F)cc2F)cc(OC)c1OC	9.29%

Structure (SMILES)	hERG current change (%, negative = inhibition) at 10uM
CC(NC(=O)CNC(=O)c1ccco1)c1ccc(S(N)(=O)=O)cc1 (centres unmarked)	21.6%
O=C(Nc1ccccc1)c1cc2ccccc2[nH]1	3.82%
O=C(NCC1CC1)Nc1cccc(C(F)(F)F)c1	9.59%
COc1ccc(C(=O)COC(=O)CN2C(=O)c3ccccc3C2=O)c(OC)c1	5.3%
CCc1ccccc1N1C(=O)C2C3C=CC(CC3)C2C1=O (centres unmarked)	15.5%
O=C(CCNS(=O)(=O)c1cccc2nonc12)NCc1cccs1	-6.21%
COc1cc(/C=N/NC(=O)c2ccncc2)ccc1OC(=O)c1cccc(Br)c1	-26%
Cc1ccc(S(=O)(=O)NNC(=O)c2csnn2)cc1	1.7%
CC1=C(C)CC(C(=O)NC2CCN(C(C)C)CC2)C(C(=O)O)C1 (centres unmarked)	15.3%
CCOc1ccc(N2Nc3n[nH]c(N)c3N2)cc1	12.9%
Cc1c(Cl)c([N+](=O)[O-])nn1CC(=O)NCC(C)C	8.29%
CCSc1nc2sc3c(c2c(=O)n1-c1ccc(OC)cc1)CCN(C)C3	5.2%
O=C(NC12CC3CC(CC(C3)C1)C2)c1ccc(-c2cccc(Cl)c2)o1	23.1%
COc1ccc(CN(C)C(=O)c2ccc(NS(=O)(=O)c3ccccc3)cc2)c(OC)c1	-7.77%
Cc1ccc(N(C(=O)Cn2nnc3ccccc32)C(C(=O)NC2CCCCC2)c2cn(C)nc2C)cc1 (centres unmarked)	-0.391%
COc1ccc(-c2ccc(OC)cc2)cc1	7.51%
CCCCN1C(=O)C(C2c3ccccc3C(=O)N2Cc2ccccc2)C(=O)NC1=S (centres unmarked)	-9.08%
O=C(Cc1cccs1)NCCc1ccc(F)cc1	17.7%
CCCCCCNC(=O)CC(c1ccccc1)c1cc(Br)ccc1O (centres unmarked)	-3.26%
Cc1ccc(C(=O)NC(=S)NNC(=O)c2ccccc2)cc1	31.1%
CC(C)OCCCNC(=O)c1ccc2c(c1)NC(=O)c1ccccc1S2	8.12%
COc1ccccc1N1CCN(C2CCN(C3CCC(c4ccccc4)CC3)CC2)CC1.O=C(O)C(=O)O (centres unmarked)	-74.1%
CC(C)OC(=O)c1cccc(C(=O)OCc2ccco2)n1	10.9%

Structure (SMILES)	hERG current change (%, negative = inhibition) at 10uM
COCCn1c(SCC(=O)Nc2ccccc2OC)nc2ccccc2c1=O	-40.1%
Cc1cccc(NC(=O)CCCc2ccccc2)c1	3.57%
CC(C)S(=O)(=O)N1CCN(c2ccnc3cc(Cl)ccc23)CC1	-71.6%
Cc1ccc(-c2cc(Cc3ccc(N(C)C)cc3)c(=O)[nH]n2)cc1	14.5%
Cc1ccc(S(=O)(=O)N(C)CC(=O)Nc2ccccc2N2CCCC2)cc1	-7.31%
COc1ccccc1OCc1ccc(C(=O)OCC2CCCO2)o1 (centres unmarked)	-2.54%
COc1ccc(/C=N/N=C2/CC(C)(C)Cc3n[nH]c(=O)cc32)cc1	8.64%
COCCNC(=O)c1cnn2c(C(F)F)cc(-c3ccccc3)nc12	25.2%
CC(C)(CN1CCN(Cc2ccccc2)CC1)NS(=O)(=O)c1ccc(Cl)cc1	-74.7%
COc1ccccc1N1CCN(CCOc2c(OC)cccc2OC)CC1.Cl	-34.6%
O=C(CCCn1c(=O)[nH]c2ccsc2c1=O)N1CCN(Cc2ccc3c(c2)OCO3)CC1	-18.8%
CC1CC(C)CN(S(=O)(=O)c2ccc3c(c2)CC(=O)N3)C1 (centres unmarked)	-20.8%
Cc1[nH]c2ccccc2c1Cc1n[nH]c(=S)n1C	21.1%
COc1cc(NC(=O)CN2C(=O)NC(c3ccccc3)(c3ccccc3)C2=O)c(C)cc1[N+](=O)[O-]	-22.7%
O=C(N/N=C/c1cccc(O)c1)c1ccc(COc2ccc3c(c2)CCC3)o1	6.88%
COc1cc(C(=O)Nc2ccc3nc(N4CCOCC4)sc3c2)cc(OC)c1OC	-1.67%
CCCC(=O)Nc1ccc2oc(-c3cncc(Br)c3)nc2c1	7.03%
COC(=O)N1C(=O)[C@](c2ccc(OC)cc2)(C(C)C)N1C(=O)OC	8.8%
Cc1ccc(C(=O)N/C(=C\c2cccs2)C(=O)NCCc2c[nH]c3ccccc23)cc1C	-21.2%
COc1ccc(C(=O)NCc2csc(C(C)C)n2)cc1OC1CCN(C(C)=O)CC1	3.77%
